In PMC9788986, “Dynamic chromatin accessibility deploys heterotypic cis/trans-acting factors driving stomatal cell-fate commitment” (Nature Plants, 2022):
These are yes or no findings as the source states them, for the method shown. Binding seen in cells or lysates may run through a third protein. Some binding calls cover weakened binding; strength is not graded here. For some of these results: Sequences can lack the tags named with a protein.

Tests used:
[1] = biological target: T1, BPC2 fused to the half YFP (YFPc) (Arabidopsis thaliana) (UniProt Q9LDE2); test: split reporter; BiFC in N. benthamiana leaves; YFPn and YFPc pair with non-fluorescent-protein-tagged SCRM co-expressed
T1 sequence: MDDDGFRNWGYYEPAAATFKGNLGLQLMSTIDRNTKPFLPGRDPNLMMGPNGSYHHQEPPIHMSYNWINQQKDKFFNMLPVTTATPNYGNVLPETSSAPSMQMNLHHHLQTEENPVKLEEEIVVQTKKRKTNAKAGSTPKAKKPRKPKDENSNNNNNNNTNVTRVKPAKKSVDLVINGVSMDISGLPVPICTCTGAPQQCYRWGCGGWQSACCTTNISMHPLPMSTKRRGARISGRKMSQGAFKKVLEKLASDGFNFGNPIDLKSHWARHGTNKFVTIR

[2] = biological target: T2, BPC1 fused to the half YFP (YFPc) (Arabidopsis thaliana) (UniProt Q9SKD0); test: as above
T2 sequence: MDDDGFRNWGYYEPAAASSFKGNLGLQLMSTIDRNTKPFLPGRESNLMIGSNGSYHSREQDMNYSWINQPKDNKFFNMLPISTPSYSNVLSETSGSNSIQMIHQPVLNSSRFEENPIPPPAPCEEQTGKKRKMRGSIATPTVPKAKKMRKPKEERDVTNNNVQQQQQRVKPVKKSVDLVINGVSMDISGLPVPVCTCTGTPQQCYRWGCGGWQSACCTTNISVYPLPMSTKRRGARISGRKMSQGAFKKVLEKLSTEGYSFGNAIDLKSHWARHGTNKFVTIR

[3] = biological target: T1, BPC2 fused to the half YFP (YFPc) (Arabidopsis thaliana); test: split reporter; BiFC in N. benthamiana leaves; complementary pair of YFPn and YFPc constructs co-infiltrated with silencing suppressor p19; leaf discs imaged 3 d after agro-infiltration
[4] = biological target: T2, BPC1 fused to the half YFP (YFPc) (Arabidopsis thaliana); test: as above
[5] = biological target: T3, SCRM-YFPc (Arabidopsis thaliana) (UniProt Q9LSE2); test: as above
T3 sequence: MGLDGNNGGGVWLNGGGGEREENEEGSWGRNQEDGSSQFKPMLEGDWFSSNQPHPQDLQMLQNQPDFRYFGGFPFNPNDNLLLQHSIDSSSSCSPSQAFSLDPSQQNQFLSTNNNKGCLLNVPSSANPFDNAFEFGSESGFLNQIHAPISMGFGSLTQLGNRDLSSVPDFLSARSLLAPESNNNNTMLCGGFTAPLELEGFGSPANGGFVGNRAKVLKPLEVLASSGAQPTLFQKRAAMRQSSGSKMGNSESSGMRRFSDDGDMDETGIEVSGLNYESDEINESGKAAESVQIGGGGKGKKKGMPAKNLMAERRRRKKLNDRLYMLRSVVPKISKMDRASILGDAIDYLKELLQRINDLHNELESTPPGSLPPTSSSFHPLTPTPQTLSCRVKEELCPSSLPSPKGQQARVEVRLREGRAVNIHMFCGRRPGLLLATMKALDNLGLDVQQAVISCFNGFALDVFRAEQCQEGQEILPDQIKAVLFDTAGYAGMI

B1: MUTE-YFPn (protein, UniProt Q9M8K6 1-202)
chain: MSHIAVERNRRRQMNEHLKSLRSLTPCFYIKRGDQASIIGGVIEFIKELQQLVQVLESKKRRKTLNRPSFPYDHQTIEPSSLGAATTRVPFSRIENVMTTSTFKEVGACCNSPHANVEAKISGSNVVLRVVSRRIVGQLVKIISVLEKLSFQVLHLNISSMEETVLYFFVVKIGLECHLSLEELTLEVQKSFVSDEVIVSTN
- binding [1]: binds
- binding [2]: binds
- binding [3]: binds
- binding [4]: binds
- binding [5]: binds

B2: SPCH-YFPn (protein, UniProt Q700C7 1-364)
chain: MQEIIPDFLEECEFVDTSLAGDDLFAILESLEGAGEISPTAASTPKDGTTSSKELVKDQDYENSSPKRKKQRLETRKEEDEEEEDGDGEAEEDNKQDGQQKMSHVTVERNRRKQMNEHLTVLRSLMPCFYVKRGDQASIIGGVVEYISELQQVLQSLEAKKQRKTYAEVLSPRVVPSPRPSPPVLSPRKPPLSPRINHHQIHHHLLLPPISPRTPQPTSPYRAIPPQLPLIPQPPLRSYSSLASCSSLGDPPPYSPASSSSSPSVSSNHESSVINELVANSKSALADVEVKFSGANVLLKTVSHKIPGQVMKIIAALEDLALEILQVNINTVDETMLNSFTIKIGIECQLSAEELAQQIQQTFC
- binding [1]: no binding
- binding [2]: no binding
- binding [3]: no binding
- binding [4]: no binding
- binding [5]: binds
